Measured values published in PubChem BioAssay AID485344 (National Center for Advancing Translational Sciences (NCATS), 2010).
The campaign covered roughly 340,000 compounds. About 6,900 (2%) were called active. Rule as the data show it: active = inhibition above about 30%; inactive = below that, where a call was filed. This is a selection; strong and weak results do not stand in their true shares. The source gives no active or inactive call for entries shown without one.

target: D(2) dopamine receptor (Homo sapiens) (UniProt P14416); experiment: HTS Assay for Allosteric Antagonists of the Human D2 Dopamine Receptor: Primary Screen for Antagonists; conditions: HEK293 TREx D2 cells, calcium flux, dopamine EC80; at 10 µM; stronger effect = higher value; also: 0% is about no effect
Sequence of UniProt P14416 (P14416 whole entry, looked up): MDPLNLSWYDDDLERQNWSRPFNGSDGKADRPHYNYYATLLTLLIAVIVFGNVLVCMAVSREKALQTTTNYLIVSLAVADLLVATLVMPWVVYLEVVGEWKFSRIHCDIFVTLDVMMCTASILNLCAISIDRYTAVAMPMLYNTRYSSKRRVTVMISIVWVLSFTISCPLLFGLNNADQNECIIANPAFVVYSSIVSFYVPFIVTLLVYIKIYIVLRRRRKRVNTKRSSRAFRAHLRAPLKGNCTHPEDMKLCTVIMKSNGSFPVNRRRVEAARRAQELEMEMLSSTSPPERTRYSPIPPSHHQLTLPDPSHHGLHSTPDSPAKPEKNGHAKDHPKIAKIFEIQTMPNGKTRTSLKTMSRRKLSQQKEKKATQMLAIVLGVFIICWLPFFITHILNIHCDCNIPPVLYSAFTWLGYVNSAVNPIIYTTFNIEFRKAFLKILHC
How it was run: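 Measurement of antagonist activity uses fluorescent calcium dye in inducible HEK293 T-REx D2 cells: 10 s baseline, compound addition with 180 s read, EC80 dopamine addition with a further 180 s read.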

Point of comparison: `CN1c2ccc(Cl)cc2-c2nc(SCC(=O)Nc3cc(F)ccc3F)ncc2S1(=O)=O`, inhibition 1.88%. Against it:
- COC(=O)NNC(=O)C1CCC(C)CC1 (stereo not drawn) — higher, 3.04%
- Cc1cccc(N2C(=O)CS(=O)(=O)C23C(=O)N(C)c2ccccc23)c1 (stereo not drawn) — lower, -22.4%
- CCNC(=O)c1cnc2sc(N3CCC(C)CC3)nn2c1=O — higher, 7.32%
- Cc1ccc2c(c1)N(C(=O)N1CCC(C(=O)NCCC3=CCCCC3)CC1)CC(C)O2 (stereo not drawn) — lower, -16%
- Cc1c(C(=O)N2CCCC2)oc2c1-c1nn(CC(=O)NCc3cccc(F)c3)cc1CC2 — lower, -3.33%
- O=C(CCc1nc2cccnc2n1Cc1ccccc1)NCc1cccc(Cl)c1 — lower, -8.82%
- OCc1cnc(SCc2cccc(F)c2)n1Cc1ccc(F)cc1 — lower, -7.12%
- O=C(Nc1cccc(Cl)c1)c1ccc2nc(Cc3ccccc3)oc2c1 — lower, -23.9%
- COc1cc(OC)c(NC(=O)C2=C(C)C(=O)OC23CCCCC3)cc1Cl — lower, -7.23%
- COc1ccccc1CNC(=O)c1cc(Sc2cccc(Cl)c2)nc2ccccc12 — higher, 16.7%
- CCc1ccc(C(=O)c2cnc3ccc(C)cc3c2S(=O)(=O)c2ccc(OC)cc2)cc1 — lower, -13.6%
- CCCCc1ccc(C(=O)Nc2ccc3nc(N(CC)CC)cc(C)c3c2)cc1 — lower, -4.92%
- COc1ccc2cc(CNc3ccc(C)cc3)c(=O)n(CC(=O)Nc3ccc(OC)c(Cl)c3)c2c1 — higher, 9.07%
- O=C(CCCn1c(=O)c2sccc2n(Cc2ccc(F)cc2Cl)c1=O)NCc1ccc2c(c1)OCO2 — higher, 22.3%
- COC(=O)c1ccccc1NC(=O)c1ccc2c(c1)CCN2S(=O)(=O)c1ccc(C)cc1 — lower, -21.3%
- O=c1cc(-c2ccccc2)n2c(SCc3ccc([N+](=O)[O-])cc3)nnc2[nH]1 — lower, -18.5%
- CC1=C(C(N)=O)C(c2cccc(F)c2)n2nc(SCc3ccccc3)nc2N1 (stereo not drawn) — higher, 3.84%
- O=C(O)Cn1nc(N2CCN(c3ccc(F)cc3)CC2)ccc1=O — higher, 11.6%
- CCCCN(C)C(=O)CN1C(=O)CCn2nc(-c3cn(C)c4ccccc34)cc21 — lower, -1.58%
- COc1ccc(-c2nc(CCNC(=O)c3cccs3)cs2)cc1OC — higher, 12.5%
- COc1cccc(CCNC(=O)c2c(O)nc3cc(C)ccn3c2=O)c1 — lower, -7.53%
- COCCCNC(=O)Nc1cc(C(=O)NCc2ccc(OC)cc2)ccc1N1CCCC1 — lower, -8.39%
- COc1cc2cc(CNc3ccc(C)cc3)c(=O)n(CC(=O)Nc3ccc(C(C)C)cc3)c2cc1OC — lower, -11.9%
- CN(C)c1ccc(CNC(=O)CCC(=O)N2Cc3ccccc3Oc3ncccc32)cc1 — higher, 14.2%
- COc1ccccc1NC(=O)c1ccccc1NC(=O)c1ccccc1 — higher, 8.52%
- COc1ccc(NC(=O)CSc2nc(-c3ccc(OC)cc3)[nH]c2-c2ccc(F)cc2)cc1 — higher, 28.1%
- Cc1ccc(CN(C(=O)COc2ccc(C(C)(C)C)cc2)C2CCS(=O)(=O)C2)o1 (stereo not drawn) — lower, -1.71%
- COCCc1nn2c(=O)cc(COC(=O)c3cccs3)nc2s1 — lower, -5.46%
- CCOc1ccccc1NC(=O)CN(CCc1ccccc1)S(=O)(=O)c1ccc(C)cc1 — higher, 7.62%
- Cn1nnc2c(N3CCCCC3)ncnc21 — lower, -8.37%
- CCc1cccc(C)c1NC(=O)CN1C(=O)c2c(c3ccccc3n2C)C1c1ccc(OC)cc1 (stereo not drawn) — lower, -5.44%
- Clc1ccc(CNc2nc3ccccc3c3nc(-c4cccnc4)nn23)cc1 — lower, -9.25%
- CCn1ccc2cc(S(=O)(=O)N3CCC(C(=O)NCCc4ccc(SC)cc4)CC3)ccc21 — higher, 18%
- Cc1ccc(CCNC(=O)c2c(C)oc3ncnc(N4CCOCC4)c23)cc1 — lower, -1.67%
- COc1cccc(CNC(=O)N2CCC(CN3CCC(C)CC3)CC2)c1 — higher, 2.19%
- Cc1ccc(NCc2cccn2-c2nnc(N3CCC(C(=O)NCCc4ccccc4)CC3)s2)cc1 — lower, 0.601%
- CCOc1ccc(C(=O)Nc2ccc(-c3nc4cc(C(C)C)ccc4o3)cc2)cc1Cl — lower, -6.82%
- CCc1cccc(NC(=O)c2nc(-c3ccncc3)no2)c1 — lower, -7.83%
- COc1ccc(C2=NN(CC(=O)NCc3ccccc3Cl)C(=O)CC2)cc1 — lower, -16%
- CCCN(CCC)CCCNC(=O)Cn1cc2c(n1)-c1c(oc(C(=O)N3CCCC3)c1C)CC2 — lower, -0.459%
- COc1cccc(C(=O)c2cn(CC(=O)NCCc3ccccc3)c3nc(C)ccc3c2=O)c1 — lower, 1.28%
- CCOC(=O)N1CCc2c(sc3c2C(=O)NC(c2cc(OC)c(O)c(OC)c2)N3)C1 (stereo not drawn) — lower, 1.43%
- COc1cccc(NC(=O)Cn2c(=O)n(CCc3ccccc3)c(=O)c3c4c(sc32)CN(C(C)=O)CC4)c1 — lower, 0.782%
- Cc1ccc(C(=O)c2oc3ccccc3c2NC(=O)COc2ccccc2Cl)cc1 — higher, 4.75%
- Cc1cc(C)n(-c2nc3ccccc3nc2N2CCN(c3cccc(C)c3C)CC2)n1 — higher, 9.87%
- CCOc1ccc(NC(=O)NCc2ccc3c(c2)CCN3C(C)=O)cc1 — the same, 1.88%
- CCOC(=O)c1cc2c(=O)n3ccccc3nc2n(CC2CCCO2)c1=NC(=O)c1ccc(OC)cc1OC (stereo not drawn) — lower, -9.3%
- CCOc1ccc(-n2c(CC)nc3c(cnn3-c3ccc(Cl)cc3)c2=O)cc1 — higher, 8.03%
- COc1ccc(-c2nc3c4ccccc4n(CC(=O)N4CCN(c5ccc(F)cc5)CC4)c(=O)n3n2)cc1 — higher, 8.92%
- Cc1oc(-c2cccc(Cl)c2)nc1CN1CCCC(C(=O)N2CCN(c3ccc(F)cc3)CC2)C1 (stereo not drawn) — lower, -23%
- COc1c(Cl)cc(C(=O)N(Cc2ccc(C)o2)C2CCS(=O)(=O)C2)cc1Cl (stereo not drawn) — higher, 13.3%
- Cc1cccc(Cn2c(C)c(CNC3CCCCCC3)c(C(=O)O)c2C)c1 — lower, -16%
- O=C(Cn1c(=O)c2ccccc2n(CC(=O)Nc2ccc(F)cc2)c1=O)NCCc1ccccc1 — lower, 1.4%
- CCCCCC(=O)Nc1ccc(NC(=O)c2cc3ccccc3o2)c(OC)c1 — lower, 0.639%
- COc1cccc(CNC(=O)C2(c3cccs3)CCOCC2)c1 — higher, 11.9%
- Cc1oc2ccc(O)c(CN3CCN(C)CC3)c2c1C(=O)Nc1cccc(C(F)(F)F)c1 — lower, -2.32%
- CCOC(=O)c1c(NC(=O)CSc2cn(CCNC(=O)c3ccccc3OC)c3ccccc23)sc2c1CCC2 — higher, 5.45%

With `NC(=Nc1ccccc1)Nc1ccccc1` the inhibition was active: 55.8%.
In the case of `Cc1ccccc1CN(C)CC(=O)Nc1ccccc1Oc1ccccc1`, the inhibition is reported as active: 42.8%.
`O=S1(=O)CC(O)C(NCc2ccco2)C1` (stereo not drawn) was tested, and the inhibition was active: 33.9%.
For `COc1ccccc1/C=C/C(=O)Nc1ccc2c(c1)OCCO2`, the inhibition was active: 34.4%.
In the case of `Cc1ccc(NC(=O)Cn2ccsc2=N)cc1S(=O)(=O)N(C)C`, the inhibition is reported as active: 35.5%.
